Experimental data: PubChem BioAssay AID493208 (National Center for Advancing Translational Sciences (NCATS), 2011)
Among all 44,000 compounds or so, about 340 (0.77%) were called active. Inconclusive results (about 5%) are left out. Calls follow the shape of the dose curve; as a rule, active = well fitted inhibition curve with a large enough effect; inconclusive = small, poorly fitted or top-dose-only effect; inactive = flat fitted curve, though single readings scatter. Some of the results follow.

experiment: Acumen qHTS Assay for Inhibitors of the mTORC1 Signaling Pathway in MEF (Tsc2-/-, p53-/-) Cells: Sytravon; conditions: phospho-rpS6 immunofluorescence/PI, 24 h; series mostly up to 38.3 µM; activity change, negative = inhibition: at the top concentration;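 also: plate controls were DMSO for no effect and rapamycin for full effect; nearly all actives have a fitted effect of over 50% in size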
Procedure, shortened: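 Tsc2-/-, p53-/- mouse embryonic fibroblasts (empty-vector line) exposed to compound 24 hrs at 37 C, fixed, immunostained for phospho-rpS6 and counterstained with propidium iodide. Acumen laser scanning gives % positive cells from Alexa 488/PI ratio, thresholded using 7.5 nM rapamycin; PI count gives viability.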

Activity change, negative = inhibition, inactive:
CCOc1ccccc1C(=O)N1CCC(c2nc3ccccc3o2)CC1 -6.77%, COc1ccc(OC)c(NC(=O)CC(=O)Nc2ccc3nc4n(c(=O)c3c2)CCCCC4)c1 -14.3%, Cc1nc(SCC(=O)Nc2ccc(C(=O)O)cc2)n[nH]1 -4.71%, Cc1cc(C)c(OCCOCCn2c(-c3ccc(Cl)cc3)nc3ccccc3c2=O)c(C)c1 0%, Cc1ccc(C2CCN(C(=O)c3cnn(-c4ccc(C)c(C)c4)c3C3CCN(C(=O)OC(C)(C)C)CC3)C2)cc1 (stereo unspecified) -2.32%, CS(=O)(=O)N(Cc1ccccc1)c1ccc(C(=O)Nc2ccc(Cl)cc2)cc1 7.81%, Cc1cccc(-n2nc(C)c(C(=O)N3CCN(c4ccccc4)CC3)c2-n2cccc2)c1 10.6%, COc1ccccc1C(=O)Nc1ccc(S(=O)(=O)Nc2ncccn2)cc1 -3.84%, Cc1cc(F)ccc1NC(=O)CCn1nc(C)c(S(=O)(=O)N2CCCCC2)c1C 15.4%, Cc1ccc(C)c(N2CCN(C(=O)C(CC(C)C)NS(=O)(=O)c3ccc4nc(C)sc4c3)CC2)c1 (stereo unspecified) -3.85%, COc1ccc(Cl)cc1NC(=O)c1cc(S(=O)(=O)N(C)Cc2ccccc2)ccc1F -5.33%, COc1cccc(-c2nc(SCC(=O)Nc3ccc4c(c3)OCCO4)c(-c3ccc(C)cc3)[nH]2)c1 -3.15%, CCOC(=O)c1cnc2c(C)cccc2c1Nc1ccc(OC(C)C)cc1 0.457%, COc1ccccc1CN(Cc1c(Cl)cccc1Cl)S(=O)(=O)c1ccc(Br)cc1 9.65%, Cn1c(=O)[nH]c(=O)c2c1nc(CN1CCN(c3ccccc3F)CC1)n2Cc1ccc(F)cc1 0.805%, Cc1cccc(OCCCn2c(CCNC(=O)C3CCCCC3)nc3ccccc32)c1 7.74%, Cn1cc(S(=O)(=O)c2cccc(Cl)c2)c(=O)c2cc(F)c(N3CCCCC3)cc21 0.165%, O=C(NCCc1ccc(Cl)cc1)c1ccc(CSCc2cccc(Cl)c2)o1 -20.3%, Cc1ccc(Cl)cc1NC(=O)c1oc2ccc(S(=O)(=O)N3CCCCCC3)cc2c1C 0.339%, Cc1cc(C)cc(OCC(=O)N2CCC(c3nc4ccccc4s3)CC2)c1 -0.37%, CCc1cccc(C)c1NC(=O)CSc1nc2c(c(=O)[nH]1)CCC2 0.778%, CCCN1C(=O)C(Cc2nc3ccccc3c(=O)n2-c2ccc(OC)cc2)c2cc(C)ccc21 (stereo unspecified) -16.2%, O=C(NCC(c1ccco1)S(=O)(=O)c1cccs1)c1ccc(Cl)cc1 (stereo unspecified) 0.232%, Cc1ccc2oc(=O)n(CCNC(=O)Nc3ccc(Cl)cc3)c2c1 -6.44%, Cc1cc(C(=O)NCc2ccccc2Cl)c2c(C)nn(-c3cccc(F)c3)c2n1 4.98%, CCCN(C(=O)Nc1cn(CC(C)C)c(=O)c2ccccc12)c1ccc(F)cc1 -5.82%, Cc1ccc(C(=O)Nc2ccc3oc(-c4ccccc4C)nc3c2)cc1 -10.8%, CC(=O)N1CCc2c(sc3c2c(=O)n(-c2ccc(C)cc2)c(=O)n3Cc2ccccc2C)C1 -2.73%, CCCCNC(=O)c1ccc2c(c1)NC(=O)C(CS(=O)(=O)Cc1ccc(C)cc1)N2 (stereo unspecified) -4.79%, CC(C)C(=O)OCc1cc(=O)n2nc(C3CC3)sc2n1 -15.1%, CCN1CCN(c2oc(/C=C/c3cc(OC)c(OC)c(OC)c3)nc2C#N)CC1 -8.05%, CCc1ccc(C2c3c(oc4cc(C)c(C)cc4c3=O)C(=O)N2c2nc(C)c(C(=O)OC)s2)cc1 (stereo unspecified) 7%, Cc1cc(C)cc(NC(=O)CSc2nc3sc4c(c3c(=O)[nH]2)CCCC4)c1 -4.47%, CCC1CN(C(=O)Nc2cc(Cl)c(OC)cc2OC)c2ccccc2O1 (stereo unspecified) 6.81%, Cc1cc(Cl)ccc1NC(=O)CCCn1nc(C)c2c(C)n(-c3ccccc3)nc2c1=O -0.589%, COc1ccc(-c2noc(CC(=O)Nc3ccc(C)c(F)c3)n2)cc1 -0.343%, COc1cc(C2Nc3ccccc3-c3nnc(SCc4ccc(C)cc4)nc3O2)cc(OC)c1O (stereo unspecified) 5.93%, CSc1ccc(CCNC(=O)c2cc3cc4cc(C)ccc4nc3s2)cc1 -14.1%, Cc1ccc(Cn2c(=O)c3cccnc3n(CC(=O)Nc3cc(Cl)ccc3C)c2=O)cc1 -1.22%, Cc1c(Cl)cccc1NC(=O)Cn1c(=O)n(Cc2nc(-c3ccccc3)no2)c(=O)c2cc3c(cc21)OCO3 -0.109%, CCc1nn(CC(=O)NCCCc2ccccc2)c(=O)c2cc3ccccc3n12 -3.87%, Cc1c(Cl)cccc1NC(=O)C1CCN(c2nc3ccccc3[nH]2)CC1 1.99%, Cc1ccc(Nc2cc(C)c(C#N)c3nc4ccccc4n23)c(C)c1 -11.6%, COC(=O)c1sccc1S(=O)(=O)N(CC(=O)Nc1ccccc1)c1ccccc1 0.904%, Cc1cccc(N2CCN(Cc3cc(=O)oc4cc(C)ccc34)CC2C)c1 (stereo unspecified) -4.67%, Cc1ccccc1N1CC(c2nnc(NC(=O)c3ccco3)s2)CC1=O (stereo unspecified) -3.83%, CC(C)(C)C1CCc2onc(C(=O)Nc3sc4c(c3C#N)CCCC4)c2C1 (stereo unspecified) 2.12%, Cc1cccc(NC(=O)N2CCC(N3CCN(Cc4ccccc4)C(=O)C3=O)CC2)c1C -1.6%, CCOc1ccc(OCC(=O)NCCS(=O)(=O)N2CCN(c3cccc(Cl)c3)CC2)cc1 -3.01%, O=C(c1cc(-c2ccc(F)cc2)on1)N1CCN(c2ccc(F)cc2)CC1 0.206%, Cn1nc(C(=O)N2CCN(c3ccccc3F)CC2)c2c1-c1ccccc1S(=O)(=O)C2 9.17%, O=C(CN1C(=O)c2cccc3cccc1c23)Nc1ccccc1Br -5.38%, CCCCNS(=O)(=O)c1ccc2nc(-c3cccnc3)cc(C(=O)NC(C)C)c2c1 -13.9%, CCCC1N=C2c3ccccc3N=C(SCC(=O)NCCc3ccc(Cl)cc3)N2C1=O (stereo unspecified) 0%, CCCOC(=O)CSc1nnc(-c2ccccc2)o1 0.848%, CCOC(=O)c1ccccc1NC(=O)c1cc2ccc3cccnc3c2[nH]1 4.89%, Cc1oc2ncnc(N3CCOCC3)c2c1C(=O)NCCc1ccccc1 -5.07%, CCn1c(C(=O)Nc2ccc(C)cc2C)cc2sc(Cl)cc21 -4.13%, CCOC(=O)COc1ccc(C)cc1C(=O)c1ccn2nc(-c3ccc(Cl)cc3)cc2n1 2.29%, CC(C)NC(=O)c1ccc2c(c1)nc1n2CCCCC1 -7.09%, Cc1ccc(NS(=O)(=O)c2ccc3nc(-c4ccccc4)[nH]c3c2)c(Br)c1 -20.2%, Cc1sc2ncn(CC(=O)N(C)c3ccc(C(C)C)cc3)c(=O)c2c1S(=O)(=O)N1CCC(C)CC1 -18.1%, COc1ccc(-c2noc(CC(=O)Nc3cc(OC)ccc3OC)n2)cc1 -5.15%, Cc1ccc(Nc2nc3ccc(C(=O)c4ccccc4)cc3n3c(C)nnc23)c(C)c1 -4.48%, CC1CCC(NC(=O)C2(C)Cc3ccccc3C(=O)N2Cc2ccc(Cl)cc2)CC1 (stereo unspecified) 1.63%, CCCn1c(=O)c2sccc2n2c(CCCC(=O)N3CCN(c4cccc(Cl)c4)CC3)nnc12 1.8%, CC(=O)c1cccc(NC(=O)CN2C(=O)CC(c3ccc(C)cc3C)=Nc3ccccc32)c1 8.86%, O=C(/C=C/c1ccc(Cl)cc1)N1CCC(c2nc3ccccc3o2)CC1 -6.26%, CCCCN(CC)CCCNC(=O)c1cn(CC)c2ccc(S(=O)(=O)N3CCc4ccccc4C3)cc2c1=O -1.87%, CCc1cc2c(cc3c(=O)n(CC(=O)N4CCN(c5cccc(C)c5C)CC4)nc(CC)n32)s1 -3.55%, COc1ccc(CCNCc2c(C(=O)O)c(C)n(Cc3cccc(Cl)c3)c2C)c(OC)c1OC -9.05%, CCc1ccccc1NC(=O)CCC(=O)N1CC(C)Oc2ccc(C)cc21 (stereo unspecified) 5.92%, COc1ccc(CCNC(=O)c2cc3c(=O)n(C)c4ccccc4c3s2)cc1OC -0.0431%, O=C(Cn1cc(C(=O)c2ccccc2)c(=O)c2cc3c(cc21)OCCO3)Nc1ccc(F)c(F)c1 0.49%, Cc1ccc(C)c(N2CCN(S(=O)(=O)c3ccc(C(=O)N(C)C)s3)CC2)c1 6.86%, O=C(Cn1cc(S(=O)(=O)Cc2ccccc2Cl)c2ccccc21)NCCc1ccccc1 -4.56%, CCOc1ccccc1CNS(=O)(=O)c1cc2c(cc1C)NC(=O)CO2 0%, Cc1ccccc1CNC(=O)CCC(=O)N1CCSc2ccccc21 4.97%, COc1ccc(NC(=O)c2c(NC(=O)COc3ccccc3)sc3c2CCCCC3)cc1 -7.39%, COc1ccc(NC(=O)CCNS(=O)(=O)c2ccc3c(c2)CCCC(=O)N3)cc1 1.97%, Cc1ccc(-c2cc3ncc4c(n3n2)-c2cc(Cl)ccc2OC4)cc1 -2.7%, O=C(NCc1ccc(F)cc1)C(=O)Nc1ccc2nc3n(c(=O)c2c1)CCCCC3 -3.23%, CCn1nnc2cc(C(=O)Nc3cc(C)ccc3C)ccc21 0%, COc1ccc(NC(=O)CC2C(=O)N(c3cccc(OC)c3)C(=O)N2CCC2=CCCCC2)cc1 (stereo unspecified) -15.5%, CCOc1ccc(CC(=O)NCc2ccc3c(c2)CCN3C(=O)c2ccccc2)cc1OCC -19.9%, Cc1cccc(CN2CCN(CC(=O)NCCc3ccc(Cl)cc3)C2=O)c1 -2.74%, Cc1cc(C)c(NC(=O)c2oc3c(c2C)-c2[nH]ncc2CC3)c(C)c1 0.34%, Fc1ccccc1N1CCN(c2ncnc3onc(-c4ccc(Cl)cc4)c23)CC1 -2.36%, CCOC(=O)c1ccccc1NC(=O)CN1C(=O)CC(c2ccccc2)Sc2ccccc21 (stereo unspecified) -0.565%, COc1ccc(Cl)cc1NC(=O)CSc1nc2c(oc3ccccc32)c(=O)n1Cc1ccco1 2.87%, Cc1cccc(-c2nc3scc(CCNS(=O)(=O)c4ccc(F)c(C(F)(F)F)c4)n3n2)c1 0.215%, Cc1ccc(C(=O)Nc2ccc(C(=O)O)cc2)cc1S(=O)(=O)N1CCC(C)CC1 4.26%, CCCCOc1ccc(C(=O)NCc2cn3cccc(C)c3n2)cc1 -5.66%, CCCCOc1ccc(C(=O)NCCc2sc3nc(-c4ccc(OC)cc4)nn3c2C)cc1 1.29%, CCOc1cc2c(cc1OCC)C(CC(=O)O)N(C(=O)Nc1ccc(Br)c(C)c1)CC2 (stereo unspecified) 0%, O=C(Nc1ccc(N2CCN(c3ccc(F)cc3)CC2)c(C(=O)O)c1)c1cccs1 -2.51%
